The other results are listed elsewhere or left out.
B1: PhoQ; a variant is named by its letters at X, in order, P23837 (parent)
chain: MKKLLRLFFPLSLRVRFLLATAAVVLVLSLAYGMVALIGYSVSFDKTTFRLLRGESNLFYTLAKWENNKLHVELPENIDKQSPTMTLIYDENGQLLWAQRDVPWLMKMIQPDWLKSNGFHEIEADVNDTSLLLSGDHSIQQQLQEVREDDDDAEMTHSVAVNVYPATSRMPKLTIVVVDTIPVELKSSYMVWSWFIYVLSANLLLVIPLLWVAAWWSLRPIEALAKEVRELEEHNRELLNPATTRELTSLVRNLNRLLKSERERYDKYRTTLTDLTHSLKTPLXXLQXXLRSLRSEKMSVSDAEPVMLEQISRISQQIGYYLHRASMRGGTLLSRELHPVAPLLDNLTSALNKVYQRKGVNISLDISPEISFVGEQNDFVEVMGNVLDNACKYCLEFVEISARQTDEHLYIVVEDDGPGIPLSKREVIFDRGQRVDTLRPGQGVGLAVAREITEQYEGKIVAGESMLGGARMEVIFGRQHSAPKDE

Variants of: B1
Test: enrichment ratio after two sorts for PhoP signalling (ratio (wild type AVST 3.29)); higher = more functional
Details: with PhoP (E. coli)

Row | Variant | enrichment ratio
1 | NASL | ≤ 0.25
2 | KIRR | ≤ 0.25
3 | PWFI | ≤ 0.25
4 | GSQH | ≤ 0.25
5 | DRDH | ≤ 0.25
6 | GTGY | ≤ 0.25
7 | GFNM | ≤ 0.25
8 | YKPQ | ≤ 0.25
9 | YNYT | ≤ 0.25
10 | DRER | ≤ 0.25
11 | NIVH | 1.68
12 | NFCI | ≤ 0.25
13 | GAGW | ≤ 0.25
14 | KGYK | ≤ 0.25
15 | WYAV | ≤ 0.25
16 | ACAL | 5
17 | YWCF | ≤ 0.25
18 | VFRW | ≤ 0.25
19 | HPWA | ≤ 0.25
20 | FIWN | ≤ 0.25
21 | NCYE | ≤ 0.25
22 | MYIW | ≤ 0.25
23 | DFIG | ≤ 0.25
24 | SREN | ≤ 0.25

Row | Variant | enrichment ratio
25 | MMHS | 0.501
26 | SQSG | 6.12
27 | NNLY | ≤ 0.25
28 | IKPY | ≤ 0.25
29 | FQTI | ≤ 0.25
30 | MNRD | ≤ 0.25
31 | KATR | ≤ 0.25
32 | QCAP | ≤ 0.25
33 | RKQI | ≤ 0.25
34 | RNML | ≤ 0.25
35 | NMSN | ≤ 0.25
36 | WACV | ≤ 0.25
37 | FYGP | ≤ 0.25
38 | AHLC | ≤ 0.25
39 | AYTP | 0.471
40 | RHRS | ≤ 0.25
41 | NTWE | ≤ 0.25
42 | EFDM | ≤ 0.25
43 | RKTE | ≤ 0.25
44 | KSNV | ≤ 0.25
45 | SCQW | ≤ 0.25
46 | FLRA | ≤ 0.25
47 | LRLK | ≤ 0.25
48 | KYKW | ≤ 0.25

Row | Variant | enrichment ratio
49 | MMWM | ≤ 0.25
50 | FWNF | ≤ 0.25
51 | DDPF | ≤ 0.25
52 | PKDY | ≤ 0.25
53 | PRTT | ≤ 0.25
54 | ELND | ≤ 0.25
55 | HVFR | ≤ 0.25
56 | HEIR | ≤ 0.25
57 | DGWC | ≤ 0.25
58 | DYYV | ≤ 0.25
59 | QLNQ | ≤ 0.25
60 | SGPH | ≤ 0.25
61 | HIRM | ≤ 0.25
62 | WPEL | ≤ 0.25
63 | RMSF | ≤ 0.25
64 | PPLE | ≤ 0.25
65 | HMCF | 2.28
66 | YEHC | ≤ 0.25
67 | SQRH | ≤ 0.25
68 | WKPE | ≤ 0.25
69 | DITD | ≤ 0.25
70 | TEII | 0.267
71 | RTWC | ≤ 0.25
72 | YIWH | ≤ 0.25

Row | Variant | enrichment ratio
73 | DKGS | ≤ 0.25
74 | KFAQ | ≤ 0.25
75 | SNWS | ≤ 0.25
76 | SPGD | ≤ 0.25
77 | HFFF | ≤ 0.25
78 | KICS | ≤ 0.25
79 | QDDD | ≤ 0.25
80 | MYKG | ≤ 0.25
81 | RELV | ≤ 0.25
82 | QNEF | ≤ 0.25
83 | NGFS | ≤ 0.25
84 | SIRC | ≤ 0.25
85 | PTAA | ≤ 0.25
86 | SFQD | ≤ 0.25
87 | KYCQ | ≤ 0.25
88 | HRLP | ≤ 0.25
89 | PEYR | ≤ 0.25
90 | NNNR | ≤ 0.25
91 | VRET | ≤ 0.25
92 | SQVL | 8.13
93 | RACL | ≤ 0.25
94 | GGAH | ≤ 0.25
95 | RPIT | ≤ 0.25
96 | FSVS | ≤ 0.25

Row | Variant | enrichment ratio
97 | EDHQ | ≤ 0.25
98 | YYIY | ≤ 0.25
99 | GDIK | ≤ 0.25
100 | ARGS | ≤ 0.25
101 | HCWI | ≤ 0.25
102 | GYQS | ≤ 0.25
103 | VSPY | ≤ 0.25
104 | MSRH | ≤ 0.25
105 | FQMN | ≤ 0.25
106 | KLGR | ≤ 0.25
107 | WERN | ≤ 0.25
108 | CTNP | ≤ 0.25
109 | VQPF | ≤ 0.25
110 | SFVG | 6.8
111 | TFQG | 12.3
112 | WQYT | ≤ 0.25
113 | PDIG | ≤ 0.25
114 | NTMM | ≤ 0.25
115 | FICT | ≤ 0.25
116 | WRCI | ≤ 0.25
117 | FMMS | ≤ 0.25
118 | PTHQ | ≤ 0.25
119 | YKCF | ≤ 0.25
120 | FQHG | ≤ 0.25

Row | Variant | enrichment ratio
121 | IMVC | ≤ 0.25
122 | SQKL | ≤ 0.25
123 | MPKG | ≤ 0.25
124 | QVPH | ≤ 0.25
125 | LWTN | ≤ 0.25
126 | IHTY | ≤ 0.25
127 | NGTG | ≤ 0.25
128 | GVPI | ≤ 0.25
129 | TLLW | ≤ 0.25
130 | HYRC | ≤ 0.25
131 | EDTA | ≤ 0.25
132 | HDIN | ≤ 0.25
133 | GYHN | ≤ 0.25
134 | MDND | ≤ 0.25
135 | HGGK | ≤ 0.25
136 | MDQE | ≤ 0.25
137 | SSNW | ≤ 0.25
138 | EMNC | ≤ 0.25
139 | VRHT | ≤ 0.25
140 | WMSL | ≤ 0.25
141 | FCNT | ≤ 0.25
142 | NTQG | ≤ 0.25
143 | YNLM | 8.52
144 | IASC | ≤ 0.25

Row | Variant | enrichment ratio
145 | PHIV | ≤ 0.25
146 | NRCM | ≤ 0.25
147 | LNNV | ≤ 0.25
148 | VEYE | ≤ 0.25
149 | KFPV | ≤ 0.25
150 | VMTR | ≤ 0.25
151 | KDRG | ≤ 0.25
152 | FNHM | ≤ 0.25
153 | MLKE | ≤ 0.25
154 | LCIA | ≤ 0.25
155 | PFDT | ≤ 0.25
156 | SACQ | 13.5
157 | NSCP | ≤ 0.25
158 | DTLD | ≤ 0.25
159 | IQHM | ≤ 0.25
160 | LPWD | ≤ 0.25
161 | IQHW | ≤ 0.25
162 | FARY | ≤ 0.25
163 | REWG | ≤ 0.25
164 | AVEP | ≤ 0.25
165 | YTNT | ≤ 0.25
166 | GLNW | ≤ 0.25
167 | WNTA | ≤ 0.25
168 | YHVW | ≤ 0.25

Row | Variant | enrichment ratio
169 | PRRF | ≤ 0.25
170 | LDRY | ≤ 0.25
171 | ASTW | ≤ 0.25
172 | LESF | ≤ 0.25
173 | WDPL | ≤ 0.25
174 | YEFQ | ≤ 0.25
175 | GWPI | ≤ 0.25
176 | QQGC | ≤ 0.25
177 | SWHY | ≤ 0.25
178 | TFWG | ≤ 0.25
179 | DNLV | ≤ 0.25
180 | YIPE | ≤ 0.25
181 | EPQL | ≤ 0.25
182 | RPSA | ≤ 0.25
183 | MEAC | 37.3
184 | TMTP | ≤ 0.25
185 | WKQN | ≤ 0.25
186 | AGYW | ≤ 0.25
187 | QPDF | ≤ 0.25
188 | HDAR | ≤ 0.25
189 | FLVK | ≤ 0.25
190 | KSAY | 0.715
191 | YQPC | ≤ 0.25
192 | YEVA | ≤ 0.25

Row | Variant | enrichment ratio
193 | RFTK | ≤ 0.25
194 | WAHS | ≤ 0.25
195 | VWLS | ≤ 0.25
196 | PPDF | ≤ 0.25
197 | DSWP | ≤ 0.25
198 | FMDC | ≤ 0.25
199 | VICF | 1.1
200 | VFEC | ≤ 0.25
201 | YGQR | ≤ 0.25
202 | LFSA | ≤ 0.25
203 | WLMW | ≤ 0.25
204 | VEST | 4.04
205 | RIMN | ≤ 0.25
206 | TLTN | 7.17
207 | QLER | ≤ 0.25
208 | VKLW | ≤ 0.25
209 | INLG | 2.36
210 | FFTW | ≤ 0.25
211 | RPFI | ≤ 0.25
212 | YDNR | ≤ 0.25
213 | LWNW | ≤ 0.25
214 | PIPM | ≤ 0.25
215 | PSQR | ≤ 0.25
216 | KGVI | ≤ 0.25

Row | Variant | enrichment ratio
217 | NHGN | ≤ 0.25
218 | AQDL | ≤ 0.25
219 | HMIL | ≤ 0.25
220 | NGWT | ≤ 0.25
221 | PCDF | ≤ 0.25
222 | VPHV | ≤ 0.25
223 | HNVP | ≤ 0.25
224 | DMIV | ≤ 0.25
225 | VCRN | ≤ 0.25
226 | NYAG | ≤ 0.25
227 | YFNI | ≤ 0.25
228 | HCPK | ≤ 0.25
229 | RNAR | ≤ 0.25
230 | GEMY | ≤ 0.25
231 | DNPT | ≤ 0.25
232 | EPPL | ≤ 0.25
233 | TRQE | ≤ 0.25
234 | HYRD | ≤ 0.25
235 | HGMV | 1.32
236 | RATP | ≤ 0.25
237 | LWQM | ≤ 0.25
238 | GFRK | ≤ 0.25
239 | ADMT | ≤ 0.25
240 | ASVE | 21.7

Row | Variant | enrichment ratio
241 | YSWT | ≤ 0.25
242 | GNGE | ≤ 0.25
243 | RYQG | ≤ 0.25
244 | ALIT | ≤ 0.25
245 | LEML | ≤ 0.25
246 | QFAW | ≤ 0.25
247 | DYIW | ≤ 0.25
248 | LEHP | ≤ 0.25
249 | FSSV | 0.625
250 | LPSP | ≤ 0.25
251 | KVPV | ≤ 0.25
252 | HGNL | ≤ 0.25
253 | LASR | ≤ 0.25
254 | VNLY | ≤ 0.25
255 | TEFF | 6.49
256 | HNDP | ≤ 0.25
257 | RSQK | ≤ 0.25
258 | GAQF | ≤ 0.25
259 | FGFH | ≤ 0.25
260 | QAPG | ≤ 0.25
261 | PISI | ≤ 0.25
262 | RQSC | ≤ 0.25
263 | DMFH | ≤ 0.25
264 | IHKI | ≤ 0.25

Row | Variant | enrichment ratio
265 | NFRA | ≤ 0.25
266 | SIIS | 1.84
267 | FWEP | ≤ 0.25
268 | DDER | ≤ 0.25
269 | YNTL | ≤ 0.25
270 | ETEP | ≤ 0.25
271 | YKDL | ≤ 0.25
272 | MVAC | ≤ 0.25
273 | WPHT | ≤ 0.25
274 | YRTQ | ≤ 0.25
275 | DHRG | ≤ 0.25
276 | KENV | ≤ 0.25
277 | PPYM | ≤ 0.25
278 | QMTH | ≤ 0.25
279 | EDFK | ≤ 0.25
280 | VHEW | ≤ 0.25
281 | TSGQ | 7.96
282 | ITNS | ≤ 0.25
283 | VIIY | ≤ 0.25
284 | HMSP | ≤ 0.25
285 | LTCL | ≤ 0.25
286 | ATLL | 20.5
287 | MLGF | 5.31
288 | AFLV | 0.418

Row | Variant | enrichment ratio
289 | IPFY | ≤ 0.25
290 | MNLQ | ≤ 0.25
291 | RVRR | ≤ 0.25
292 | KHYL | ≤ 0.25
293 | HDDC | ≤ 0.25
294 | HVLH | ≤ 0.25
295 | KADW | ≤ 0.25
296 | DDYG | ≤ 0.25
297 | INFS | ≤ 0.25
298 | KTFT | ≤ 0.25
299 | SMMD | ≤ 0.25
300 | NYPV | ≤ 0.25
301 | RVGG | ≤ 0.25
302 | QKSN | ≤ 0.25
303 | AYLI | 0.332
304 | FWRM | ≤ 0.25
305 | ANQC | ≤ 0.25
306 | EKVK | ≤ 0.25
